This assay concerns HSV-1. Description: HSV-1 release from infected Vero cells, plaque assay.

For Ilaprazole, the “Total Titer HSV-1 in media, 72 h” value by setting is: (Ilaprazole 4.5 μM) 9.00E+05; (Ilaprazole 9.0 μM) 2.20E+05; (Ilaprazole 13.5 μM) 4.50E+02; (Ilaprazole 18.0 μM) 1.00E+02.

For the origin of these results see patent US20230265069A1, “Small Molecule Inhibitors That Block the Budding of Enveloped Viruses” (priority 2020, published 2023).
